Results taken from PubChem BioAssay AID504466 (National Center for Advancing Translational Sciences (NCATS), 2011).
The whole screen tested about 330,000 compounds, of which about 4,200 (1.3%) were called active. Inconclusive means that the source gave no clear call. Such entries were picked first, then a sample of the others. Calls come from the whole dose curve; as a rule, active = well fitted activation curve with a large enough effect; inconclusive = small, poorly fitted or top-dose-only effect; inactive = no such curve, though single readings can be large or run the other way. Potencies of inconclusive entries are doubtful fits and often do not repeat.

Experiment: qHTS screen for small molecules that induce genotoxicity in human embryonic kidney (HEK293T) cells expressing luciferase-tagged ELG1; note: nearly all actives have a fitted effect of over 60% in size; for activity change, positive = activation: % of control where 0% means no effect
Conditions: HEK293T ELG1-luciferase reporter, luminescence, 16 h; series mostly up to 46 µM; activity change, positive = activation: at the top concentration
Procedure, shortened: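 Quantitative HTS format in 1536-well plates. HEK293T ELG1-luciferase reporter cells receive test compound and are incubated 16 hr at 37 °C, 5% CO2; ONE-Glo added, 30 min room temperature, then luminescence read.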
Potency is the fitted concentration of half-maximal effect; tags give direction and shape of the fitted curve.

Structure (SMILES) | Potency | activity change, positive = activation
Cc1ccc(NC(=S)Nc2nc(CC(=O)Nc3ccccc3)cs2)cc1 | inconclusive: 18.4 µM [activator, partial curve, poor fit] | 
O=C(/C=C/c1cccc([N+](=O)[O-])c1)NC(=S)Nc1ccc(CN2CCOCC2)cc1 | inconclusive: 23.1 µM [activator, partial curve, poor fit] | 
O=C(Nc1ccccc1Cl)c1cc2ccccc2o/c1=N\O | active: 16.4 µM | 
O=C1CCCC(=O)C1=C1SCCS1 |  | inactive: 3.03%
O=C(N=C1SCC(=O)N1c1ccccc1Cl)c1ccco1 | inconclusive: 13 µM [activator, partial curve] | 
Cc1ccc(O)c(NC(=O)c2ccc3c(c2)C(=O)N(CC(C)C)C3=O)c1 | inconclusive: 7.3 µM [activator, partial curve] | 
C/C(=N\NC(=O)c1ccccc1)c1cccc(Br)c1 | inconclusive: 20.6 µM [activator, partial curve] | 
CCOC(=O)C1(Cc2cccc(OC)c2)CCN(C2CCOCC2)CC1 | inconclusive: 7.3 µM [activator, partial curve] | 
Cc1ccc(NC(=O)c2ccc(Cl)cc2Cl)cc1O | inconclusive: 13 µM [activator, partial curve, poor fit] | 
CC(C)c1c(C(=O)N/N=C/c2cccs2)nnn1-c1nonc1N |  | inactive: 0.0642%
NNc1nc(-c2ccccc2Cl)nc2sc3c(c12)CCCC3 | inconclusive: 9.2 µM [activator, partial curve, poor fit] | 
Cc1ccc(NC(=O)c2noc3c2CCCCC3)cc1 | inconclusive: 1.64 µM [activator, partial curve] | 
CC(C)Oc1ccc(CNC(=O)c2ccc3c(c2)N(C)CCS3)cc1 | inconclusive: 25.9 µM [activator, partial curve, poor fit] | 
CCc1nc(-c2ccc(-c3ccc(OC)cc3)nc2OC)no1 | inconclusive: 13 µM [activator, partial curve, poor fit] | 
Cc1cc(C(=O)N/N=C/c2ccc(O)c([N+](=O)[O-])c2)n[nH]1 |  | inactive: -2.17%
CC(OC(=O)C1CC(=O)N(Cc2ccccc2)C1)C(=O)Nc1cccc(C#N)c1 (stereo unspecified) |  | inactive: 2.53%
Cc1csc2c(N3CCN(C(=O)c4ccc(C(C)(C)C)cc4)CC3)ncnc12 |  | inactive: 4.67%
O=C(Nc1ccccc1)c1cc2n(n1)C(C(F)(F)F)CC(C1CC1)N2 (stereo unspecified) | inconclusive: 13 µM [activator, partial curve] | 
Cc1onc(-c2ccccc2Cl)c1C(=O)OCc1cnc(Cl)s1 |  | inactive: -5.59%
O=C(Nc1cnc2ccccn2c1=O)c1ccc(Cl)cc1Cl | inconclusive: 0.58 µM [activator, full curve] | 
O=C(/C=C/c1ccc(Cl)c([N+](=O)[O-])c1)c1ccc(O)cc1 | inconclusive: 16.4 µM [activator, partial curve, poor fit] | 
C#CCSc1nnc(-c2sc(-c3ccccc3)nc2C)n1C |  | inactive: 0.526%
COc1ccc(-c2nc3ccc([N+](=O)[O-])cc3o2)cc1 | active: 6.51 µM | 
O=C(Nc1ccc2c(c1)C(=O)NC2=O)c1ccc(S(=O)(=O)N2CCCC2)cc1 |  | inactive: 8.52%

Structure (SMILES) | Potency | activity change, positive = activation
Cn1c(CCNC(=O)C2CCCCC2)nc2cc(NC(=O)c3cccs3)ccc21 | inconclusive: 29.1 µM [activator, single point] | 
O=c1c2ccccc2ncn1CCCOc1ccccc1[N+](=O)[O-] | inconclusive: 18.4 µM [activator, partial curve, poor fit] | 
COc1cccc(OCC(=O)O/N=C(\N)c2ccncc2)c1 | inconclusive: 18.3 µM [activator, partial curve, poor fit] | 
COc1ccc(C(=O)/C=C/c2cn(CN3CCN(C)CC3)c3ccccc23)cc1 | inconclusive: 20.6 µM [activator, single point] | 
CC(C)c1cc(C(=O)NNC(=S)NC2CCCCC2)cs1 | inconclusive: 2.06 µM [activator, full curve] | 
COc1cc(OC)cc(C(=O)NCCS(=O)(=O)N2CCN(Cc3ccccc3)CC2)c1 |  | inactive: -0.103%
Cc1cc(C)cc(C(=O)NC(CC(N)=O)c2ccc(N3CCCCCC3)c([N+](=O)[O-])c2)c1 (stereo unspecified) |  | inactive: -0.336%
Nc1ncccc1OCc1ccc(Cl)c(Cl)c1 | inconclusive: 5.17 µM [activator, partial curve, poor fit] | 
COc1ccc(/C=N/NC(=O)C(C)Sc2ccccn2)cc1[N+](=O)[O-] (stereo unspecified) |  | inactive: -0.0998%
CC(C)(C)c1ccc(/C=C2\SC(=O)N(CCNC(=O)c3cccc(S(=O)(=O)N4CCOCC4)c3)C2=O)cc1 | inconclusive: 2.06 µM [activator, partial curve] | 
C[C@H](CO)N1C[C@H](C)[C@@H](CN(C)C(=O)NC2CCCCC2)Oc2c(NC(=O)Nc3ccc(C(F)(F)F)cc3)cccc2C1=O |  | inactive: -5.9%
N#Cc1cc(C#N)c(N2CCN(c3ccccn3)CC2)nc1N |  | inactive: 13.7%
CCC(Sc1ncnc2c1nnn2-c1ccc(F)cc1)C(=O)OC (stereo unspecified) | inconclusive: 32.6 µM [activator, partial curve, poor fit] | 
O=C(Nc1cccc(Cl)c1)N1CCc2ccccc2C1 | inconclusive: 9.2 µM [activator, partial curve] | 
CCOC(=O)N1CCC(NC(=O)CC2C(=O)NCCN2Cc2cccc(F)c2F)CC1 (stereo unspecified) |  | inactive: 1.28%
O=C(NNC(=S)NCC1CCCO1)c1cc(Br)ccc1Cl (stereo unspecified) |  | inactive: -0.117%
CCOc1ccc(NC(=O)NC2CCCCCCC2)cc1 | active: 10.3 µM | 
COc1ccc(-c2cn(Cc3ccc(C(N)=O)cc3)c(-c3ccc(Cl)nc3)n2)cc1 | inconclusive: 14.6 µM [activator, partial curve, poor fit] | 
Cc1ccc(C)c(OCc2nnc(N)s2)c1 |  | inactive: -0.281%
O=C(CNC(=O)c1ccco1)Nc1ccc(Cl)cc1 | inconclusive: 20.6 µM [activator, partial curve, poor fit] | 
CCCCNC(=O)C(=O)Nc1cc2c3c(c1)CCC(=O)N3CCC2 | inconclusive: 23.1 µM [activator, partial curve, poor fit] | 
CC(C)C(=O)Nc1cccc(NC(=O)c2cc3ccccc3o2)c1 | inconclusive: 7.31 µM [activator, partial curve] | 
Cc1csc2c(N3CCN(C(=S)Nc4ccc(F)cc4F)CC3)ncnc12 |  | inactive: 0.531%
COc1ccccc1NC(=O)Nc1cc(NC(=O)Nc2ccccc2OC)c(C)nc1C | inconclusive: 20.6 µM [activator, single point] | 

Structure (SMILES) | Potency | activity change, positive = activation
COc1cc(SC)ccc1C(=O)Nc1cc(C)ccn1 | inconclusive: 2.59 µM [activator, partial curve] | 
CN(C)c1ccc(/C=N/NC(=O)CNC(=O)/C=C/c2ccccc2)cc1 | inconclusive: 5.8 µM [activator, partial curve] | 
COc1ccccc1C(=O)Nc1ccnn1C1CCN(Cc2ncc[nH]2)CC1 |  | inactive: 1.95% [at 9.26 µM]
Cc1ccc2nc(-c3ccncc3)[nH]c2c1 | active: 11.6 µM | 
O=C(Nc1ncc(Cc2ccccc2)s1)C1CCCO1 (stereo unspecified) | inconclusive: 2.31 µM [activator, full curve] | 
Clc1ccccc1/C=C/c1nc(-c2ccccn2)no1 | inconclusive: 0.164 µM [activator, partial curve] | 
COC(=O)c1ccc(COc2ccc(C)c(C)c2)o1 | inconclusive: 16.4 µM [activator, partial curve, poor fit] | 
COc1ccc(Cl)cc1C(=O)O/N=C(\N)c1ccccn1 | inconclusive: 9.2 µM [activator, partial curve, poor fit] | 
Cc1nc(C(=O)NNC(=O)c2ccc(C(F)(F)F)cc2)cs1 | inconclusive: 32.6 µM [activator, partial curve, poor fit] | 
NS(=O)(=O)c1ccc(NC(=O)Nc2ccc3c(c2)OCO3)cc1 | inconclusive: 10.3 µM [activator, partial curve] | 
CC1CCN(c2cc(=O)n(C3CCCCC3)c(=O)[nH]2)CC1 | inconclusive: 16.4 µM [activator, partial curve, poor fit] | 
Brc1ccsc1-c1csc(-c2ccncc2)n1 | inconclusive: 23.1 µM [activator, partial curve, poor fit] | 
O=C(N/N=C/C=C/c1ccco1)c1cccs1 | inconclusive: 23.1 µM [activator, partial curve, poor fit] | 
O=C(NCC1CCCO1)c1cc(S(=O)(=O)N2CCCC2)c(Cl)cc1Cl (stereo unspecified) |  | inactive: -4.58%
Cc1cccc(NC(=O)NCc2ccc3[nH]c(C)cc3c2)c1 | inconclusive: 25.9 µM [activator, partial curve, poor fit] | 
CCc1ccc(-c2cc(C(=O)NCCCn3ccnc3)c3ccccc3n2)s1 | inconclusive: 25.9 µM [activator, partial curve, poor fit] | 
CSc1cc(C)c(OCC(=O)Nc2c(C)nn(C)c2C)c(C)c1 |  | inactive: -9.31%
Cc1cccc2c1cnn2C(=O)Nc1ccccc1Cl | inconclusive: 18.3 µM [activator, partial curve, poor fit] | 
C=CCc1ccc(OCc2ccc(C(=O)OC)o2)c(OC)c1 | active: 10.3 µM | 
CCOC(=O)CSc1ccc(-c2nc3cc(C)c(C)cc3[nH]2)cn1 | inconclusive: 20.6 µM [activator, partial curve, poor fit] | 
Cn1c(SCc2ccc(C#N)cc2Cl)nc2ccccc21 | active: 20.6 µM | 
CC1CCc2cc(F)ccc2N1C(=O)C12CCC(C)(C(=O)O1)C2(C)C (stereo unspecified) |  | inactive: -4.23%
COC(=O)c1cc(S(=O)(=O)NCc2ccc(Br)cc2)c[nH]1 |  | inactive: 1.07%
